# Data published in the BET-seq Pho4 binding data (Le et al. 2018).
# This is one part of the list. Values were computed here from the reads of four pooled replicates and scatter widely.
# Target: T1, Pho4 (S. cerevisiae) (UniProt P07270)
# T1 sequence: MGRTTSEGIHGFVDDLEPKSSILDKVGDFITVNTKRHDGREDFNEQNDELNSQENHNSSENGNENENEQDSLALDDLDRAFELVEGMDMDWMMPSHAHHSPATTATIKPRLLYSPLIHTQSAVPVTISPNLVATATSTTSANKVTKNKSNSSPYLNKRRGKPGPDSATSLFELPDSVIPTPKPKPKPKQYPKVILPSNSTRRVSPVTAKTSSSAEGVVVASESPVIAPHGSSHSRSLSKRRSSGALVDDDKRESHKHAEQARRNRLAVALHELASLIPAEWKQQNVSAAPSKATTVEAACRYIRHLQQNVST
# Assay: relative binding free energy (BET-seq); higher = weaker binding
# Conditions: reference: library average
row,Sequence,relative binding free energy [kcal/mol]
1,AAAGGCACGTGAGTAT,0.29
2,CTTGACACGTGTGTTG,0.08
3,GTTGTCACGTGGACTG,0.1
4,ATGGTCACGTGGAGAT,0.08
5,CCTATCACGTGGTGGG,0.01
6,TACAGCACGTGTGGGT,0
7,TGTTTCACGTGGGGTA,0.1
8,TTGCGCACGTGTGAGA,-0.13
9,GGATTCACGTGATGAA,0.5
10,TATGTCACGTGCGGCG,-0.03
11,GGATGCACGTGGGATC,0.06
12,AGTGGCACGTGCGTCG,-0.2
13,GTGTGCACGTGTTCGG,-0.08
14,AATGTCACGTGTCGAT,0.05
15,AACTACACGTGGTGTT,0
16,TGTTGCACGTGTCGTG,-0.01
17,TTACACACGTGTGGGG,-0.01
18,GGAGTCACGTGGTGAA,0.23
19,TCTTTCACGTGGAAGT,0.37
20,GGGCGCACGTGTTTAT,0.03
21,ATTTGCACGTGTGTCG,0.02
22,TTTGGCACGTGTTTAT,-0.12
23,AAAGTCACGTGGTAGA,0.09
24,ATGAGCACGTGTGAGG,0
25,TTTTCCACGTGTGGAT,0.28

row,Sequence,relative binding free energy [kcal/mol]
1,TAAGTCACGTGACGTG,0.13
2,GATTCCACGTGTGTTT,0.28
3,GATGTCACGTGGATGC,0.25
4,TTTTTCACGTGTGCCT,0.38
5,TTGTTCACGTGTTATG,0.32
6,TGGGGCACGTGGTTAT,-0.12
7,GGTTGCACGTGCGGCT,-0.05
8,GGTTGCACGTGGATTT,0.16
9,GATATCACGTGCTGGT,0.28
10,TTGCTCACGTGGTGAT,0.23
11,GGTAGCACGTGGTGGG,0.03
12,GATTTCACGTGTATGC,0.49
13,TAGGCCACGTGGTTTG,-0.14
14,CAGGGCACGTGGATAT,-0.07
15,GAATACACGTGGTATT,0.16
16,AGGTACACGTGTTGGA,0.19
17,AGAGGCACGTGTGAGC,-0.06
18,AATAACACGTGTGGGG,-0.01
19,TAGTACACGTGGAAGT,0.05
20,GGGGACACGTGCGGTG,-0.05
21,CGGAGCACGTGATAGT,0.04
22,CTTTACACGTGGCTGT,0.05
23,TATGTCACGTGAAGGA,0.34
24,GTGCTCACGTGGATTG,0.24
25,ACGGTCACGTGAGGGT,0.4

row,Sequence,relative binding free energy [kcal/mol]
1,GATTGCACGTGATGAG,0.07
2,GTTTCCACGTGAGTAG,0.21
3,TAAGACACGTGTGTTA,0.01
4,TTGGCCACGTGAGGGT,0.13
5,ATTGCCACGTGGATTG,0.07
6,AGTTTCACGTGGTGGT,0.21
7,TGTACCACGTGTGATG,-0.01
8,TGGTACACGTGGGCAG,-0.17
9,GTTATCACGTGAAGTG,0.04
10,TTAGGCACGTGGTTGC,-0.22
11,TTGGGCACGTGTGTTA,-0.01
12,GGTTACACGTGAGAGC,0.48
13,TTGGTCACGTGGTCGC,0.04
14,GGCGGCACGTGACTGG,0.01
15,TTGTGCACGTGGGAGG,-0.11
16,TCGGACACGTGGGTTA,-0.12
17,TCTGCCACGTGGGTTG,-0.25
18,AAACTCACGTGGGTGG,0.21
19,AGGTTCACGTGTCCGG,0.31
20,AGTATCACGTGTTTAG,0.07
21,TGATACACGTGGCGGG,-0.12
22,TAGTACACGTGTGGTC,0.12
23,GTTTACACGTGTTGGC,0.14
24,TCAGTCACGTGGGCAT,-0.03
25,GAAGTCACGTGAGGAG,0.35

row,Sequence,relative binding free energy [kcal/mol]
1,GTGAGCACGTGCGTCG,-0.1
2,GGCGGCACGTGATGCG,-0.07
3,CTGGGCACGTGCGGGC,-0.25
4,TAATGCACGTGAGGTG,0.29
5,TAAGTCACGTGTGAGT,-0.02
6,TGCTGCACGTGGTGAT,-0.05
7,ACGGGCACGTGGCAGG,-0.05
8,GGGTGCACGTGAGTAT,0.29
9,TCGGCCACGTGGTGTG,-0.25
10,AAATTCACGTGGGTCT,0.19
11,TTTAGCACGTGAGGTC,0.15
12,ATATGCACGTGGAATT,0.11
13,ATTGGCACGTGGTCGT,-0.19
14,GGGCACACGTGGGGCA,-0.15
15,GTATCCACGTGTGGGG,-0.01
16,TTTCGCACGTGGGCGA,-0.17
17,AGAGACACGTGGGTGC,0.02
18,TAGAACACGTGTGATG,0.02
19,AGGTTCACGTGAAGCT,0.25
20,GGATGCACGTGAGGAA,0.28
21,GGTGTCACGTGAAACG,0.31
22,GTGGTCACGTGTTCAA,0.17
23,GTTTCCACGTGTAGGG,0.05
24,GACTGCACGTGTGGTT,0.06
25,GTGTGCACGTGAGGTT,0.24

row,Sequence,relative binding free energy [kcal/mol]
1,GGTAACACGTGATTGA,0.14
2,TGTGTCACGTGTGATA,0.16
3,GGGTTCACGTGAAGCA,0.35
4,CGTGTCACGTGTTAGA,0.12
5,GGGATCACGTGGAGGT,0.19
6,TTAGTCACGTGCATTA,0.08
7,TAGGACACGTGGGGAT,0.02
8,GTATACACGTGTGCTG,0.07
9,TTTTGCACGTGGACGA,0.14
10,GCGTGCACGTGGAGGA,-0.04
11,TAGTGCACGTGTAGTT,0.06
12,GACGTCACGTGTGTGC,0.26
13,GTTTACACGTGCCTTG,0.15
14,TGGGGCACGTGGAATA,0.01
15,CGGAGCACGTGCGTTG,-0.17
16,CATGTCACGTGCAGTG,0.1
17,TGCGTCACGTGGGTGT,-0.05
18,ATAGTCACGTGAGGTC,0.24
19,GTGTTCACGTGCTCTT,0.31
20,TGGAACACGTGGGAAG,-0.07
21,AGTGTCACGTGGGATG,0.01
22,TGTTGCACGTGGGCAC,-0.18
23,TGGTACACGTGGAGCG,0.09
24,ATAATCACGTGTATTT,0.12
25,GGGCTCACGTGGTTGC,0.34

row,Sequence,relative binding free energy [kcal/mol]
1,AGGGTCACGTGTAGAT,0.28
2,TTATACACGTGGTTAA,-0.04
3,GAGCGCACGTGATGTG,-0.05
4,ATTGACACGTGGGGGC,-0.19
5,GGTAACACGTGTTCTT,0.12
6,TAATCCACGTGGGGTT,-0.04
7,AGGTGCACGTGGCAAG,-0.14
8,AAAGGCACGTGGTATA,-0.09
9,AGGATCACGTGTTAGT,0.17
10,GTTTTCACGTGGCTGT,0.41
11,TTAAACACGTGTCTTT,0.11
12,AGTGACACGTGGACGG,0.04
13,TGTAGCACGTGGTCCT,-0.15
14,TGGTACACGTGTCCGG,0.15
15,TAGGACACGTGGGAGA,-0.02
16,GGCTGCACGTGTGAAG,0.35
17,TGCGACACGTGGAGCG,0.17
18,TTATTCACGTGGATTA,0.27
19,GGGCGCACGTGGCGTG,-0.22
20,TGCTTCACGTGTTCGG,0.22
21,AGGGGCACGTGAAGGT,0.12
